Results as given in PubChem BioAssay (NCI).
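Five concentrations, 48 hours, 96-well plates. Here, GI50 denotes the concentration required for 50% inhibition of growth. TGI marks complete inhibition of growth.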

system: NCI-H322M lung; assay: growth of human tumour cells (NCI), 48 h

SMILES	GI50 [nM]	TGI [nM]
Cc1ncn(-c2ccc(/C=N/Nc3ccnc4cc(Cl)ccc34)cc2)c1C	1920	3980
COc1cc2c3c(n(CCCN4CCCCC4)c(=O)c2cc1OC)-c1cc2c(cc1C3=O)OCO2	1510	2880
CCOC(=O)c1c(NCC(=O)Nc2cccc([N+](=O)[O-])c2)sc(C(C)=O)c1C	2160	5850
NC(=O)c1cccc(-n2ccc3cc(NC(=O)Nc4ccc(N5CCOCC5)c(C(F)(F)F)c4)ccc32)n1	1800	5250
O=C(N/N=C/c1ccc(Cl)s1)c1[nH]c2ccc(Br)cc2c1-c1ccccc1	1410	> 100000
